Data reported in PubChem BioAssay AID2147 (National Center for Advancing Translational Sciences (NCATS), 2009).
The campaign covered roughly 230,000 compounds. About 3,600 (1.6%) were called active. The inconclusive results got no clear call from the source; some entries with a clear call stand among them for comparison. Calls come from the whole dose curve; as a rule, active = well fitted inhibition curve with a large enough effect (not every such curve was filed as active); inconclusive = small, poorly fitted or top-dose-only effect, or another doubt; inactive = no such curve, though single readings can be large or run the other way. Potencies beside an inconclusive call are fits to weak or partial responses and may not hold up.
Note: nearly all actives have a fitted effect of over 50% in size.
Potency is the fitted concentration of half-maximal effect; tags give direction and shape of the fitted curve.
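Throughout, for activity change, negative = inhibition: 0% = wells with enzyme and -100% = buffer wells without enzyme.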

Each compound was assayed against Lysine-specific demethylase 4E (Homo sapiens) (UniProt B2RXH2) (assay: qHTS Assay for Inhibitors of Human Jumonji Domain Containing 2E (JMJD2E)). Conditions: JMJD2E catalytic domain, FDH-coupled NADH fluorescence (FDH is formaldehyde dehydrogenase); series mostly up to 57.1 µM; activity change, negative = inhibition: at the top concentration.
Chain of UniProt B2RXH2 (B2RXH2 whole entry, looked up, the tested form may be a part): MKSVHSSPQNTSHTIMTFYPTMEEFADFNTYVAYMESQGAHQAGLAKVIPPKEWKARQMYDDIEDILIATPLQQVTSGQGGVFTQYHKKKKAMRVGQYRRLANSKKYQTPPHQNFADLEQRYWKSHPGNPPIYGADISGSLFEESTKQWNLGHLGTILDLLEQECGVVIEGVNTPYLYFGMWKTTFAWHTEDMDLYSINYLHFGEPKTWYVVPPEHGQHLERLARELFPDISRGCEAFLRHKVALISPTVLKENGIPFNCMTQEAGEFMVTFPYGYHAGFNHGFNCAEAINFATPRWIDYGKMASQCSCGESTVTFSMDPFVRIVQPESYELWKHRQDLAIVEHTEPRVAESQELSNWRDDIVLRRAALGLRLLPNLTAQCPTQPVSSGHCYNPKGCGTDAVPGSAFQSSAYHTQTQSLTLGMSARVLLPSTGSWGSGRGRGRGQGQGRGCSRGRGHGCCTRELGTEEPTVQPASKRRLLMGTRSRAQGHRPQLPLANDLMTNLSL
`CCc1nnc(NS(=O)(=O)c2ccc(N/C=C/C(=O)c3ccc(OC)cc3)cc2)s1` was tested, and the Potency was inconclusive: 28.2 µM [inhibitor, single point].
`CC(=O)Oc1cc(OC(C)=O)c2c(=O)cc(-c3ccc(OC(C)=O)c(OC(C)=O)c3)oc2c1` was tested, and the Potency was inconclusive: 35.5 µM [inhibitor, partial curve].
`COC(=O)c1[nH]c2cccc(OC)c2c1NC(=O)CN1CCOCC1` was tested, and the Potency was inconclusive: 25.1 µM [inhibitor, partial curve].
`COc1ccc(N2CCN(c3oc(COc4ccc(Cl)cc4)nc3C#N)CC2)cc1` was tested, and the “activity change, negative = inhibition” value was inactive: -0.442%.
In the case of `O=C(N/N=C/c1cn(-c2ccccc2)nc1-c1cccs1)c1ccc(Cl)cc1`, the Potency is reported as inconclusive: 28.2 µM [inhibitor, partial curve].
In the case of `CCN(CC)S(=O)(=O)c1ccc(N2CCCC2)c(NS(=O)(=O)c2ccccc2)c1`, the “activity change, negative = inhibition” value is reported as inactive: 7.56%.
In the case of `CCOc1ccc(Cl)cc1S(=O)(=O)n1cnc2ccccc21`, the “activity change, negative = inhibition” value is reported as inactive: 8.64%.
`C=CCNC(=S)/C(=C(/[O-])c1ccc([N+](=O)[O-])cc1)[n+]1ccccc1` was tested, and the Potency was active: 22.4 µM.
In the case of `O=C(COC(=O)c1ccc[nH]c1=O)Nc1cc(S(=O)(=O)N2CCCCC2)ccc1Cl`, the Potency is reported as inconclusive: 39.8 µM [inhibitor, single point].
For `COc1cc2c(cc1OC)CN(Cc1nc3ccsc3c(=O)[nH]1)CC2`, the Potency was inconclusive: 35.5 µM [inhibitor, single point].
For `NS(=O)(=O)c1ccc(N2N=C(c3ccccc3)CC2c2ccc(F)cc2)cc1` (stereo not given), the Potency was inconclusive: 25.1 µM [inhibitor, partial curve].
With `CC1(C)CC(=O)C=C(N=CC2=C(O)CC(C)(C)CC2=O)C1` the “activity change, negative = inhibition” value was inactive: 0.285%.
For `Cc1[nH]c2ccccc2c1/C=N/NC(=O)c1cccs1`, the “activity change, negative = inhibition” value was inactive: -20.3%.
In the case of `CC(=O)NCCC(=O)Nc1sc2c(c1-c1nc3ccccc3[nH]1)CCCC2`, the Potency is reported as inconclusive: 28.2 µM [inhibitor, partial curve].
For `COc1cccc2sc(Nc3nnc(-c4ccccc4Cl)o3)nc12`, the Potency was inconclusive: 0.562 µM [inhibitor, single point].
`Cc1ccc(C(=O)N2CCN(c3ccc(NC(=O)CSc4ccc(Cl)cc4)cc3)CC2)cc1` was tested, and the “activity change, negative = inhibition” value was inactive: 6.71%.
In the case of `O=C(O)CCCCn1c(SCc2cc(=O)n3cc(Cl)ccc3n2)nc2ccsc2c1=O`, the Potency is reported as inconclusive: 28.2 µM [inhibitor, partial curve].
With `O=Cc1ccc(-c2nc3ccccc3s2)o1` the Potency was inconclusive: 31.6 µM [inhibitor, partial curve].
For `CC1=Nc2ccccc2N=C(NC(=O)/C=C/C(=O)O)C1c1ccccc1` (stereo not given), the Potency was inconclusive: 31.6 µM [inhibitor, single point].
With `CN(C)CCN1CCc2ccccc21` the Potency was inconclusive: 39.8 µM [inhibitor, single point].
`C/C(=N/NC(=O)CNC(=O)c1ccccn1)c1ccccc1` was tested, and the “activity change, negative = inhibition” value was inactive: -0.373%.
In the case of `COCCNC(=O)c1c(N)n(CCC2=CCCCC2)c2nc3ccccc3nc12`, the Potency is reported as inconclusive: 31.6 µM [inhibitor, partial curve].
For `O=c1[nH]ncc2c3ccccc3n(Cc3ccccc3)c12`, the Potency was inconclusive: 25.1 µM [inhibitor, single point].
In the case of `COc1ccc(OC)c(Nc2nnc(C)c(=O)[nH]2)c1`, the Potency is reported as inconclusive: 31.6 µM [inhibitor, single point].
For `Cc1cccc(N2C(S)=C(C#N)C(=O)NC2c2ccco2)c1` (stereo not given), the Potency was inconclusive: 35.5 µM [inhibitor, single point].
With `COc1cccc(CC2(CO)CCCN(CC3=Cc4cc(OC)ccc4OC3)C2)c1` (stereo not given) the Potency was inconclusive: 39.8 µM [inhibitor, single point].
In the case of `COc1ccccc1CN1CCN(C(=O)c2ccncc2)CC1`, the Potency is reported as inconclusive: 28.2 µM [inhibitor, single point].
In the case of `CCOc1ccc(N2C(=O)c3cccnc3C2=O)cc1`, the “activity change, negative = inhibition” value is reported as inactive: 1.35%.
For `COCCn1c(=NC(=O)c2cc3ccccc3oc2=O)sc2cc(S(N)(=O)=O)ccc21`, the Potency was inconclusive: 39.8 µM [inhibitor, single point].
For `Cc1nonc1C1CCCN1Cc1cn[nH]c1-c1ccc2c(c1)OCO2` (stereo not given), the “activity change, negative = inhibition” value was inactive: 4.38%.
In the case of `Cc1csc(N(C)C(=O)CSc2nnc(COc3cccc4ccccc34)o2)n1`, the “activity change, negative = inhibition” value is reported as inactive: 5.43%.
For `CC(C)OC(=O)c1c(N)n(CCCN2CCOCC2)c2nc3ccccc3nc12`, the Potency was inconclusive: 31.6 µM [inhibitor, partial curve].
For `CC(C)Oc1cc2oc(=O)c3c(c2cc1Cl)CCC3`, the Potency was inconclusive: 22.4 µM [inhibitor, partial curve].
In the case of `O=C(c1ccco1)[C@@H]1[C@@H]2C(=O)N(c3ccccc3)C(=O)[C@@H]2C2c3ccccc3C=CN21` (stereo not given in full), the Potency is reported as inconclusive: 25.1 µM [inhibitor, single point].
`CNc1c(N)c(=O)oc2ccccc12` was tested, and the Potency was inconclusive: 20 µM [inhibitor, partial curve].
With `CCN(CC)CCNC(=O)c1cn(-c2ccccc2)nc1-c1cccs1` the “activity change, negative = inhibition” value was inactive: -22.8%.
For `O=C1CC(c2cccc(F)c2)C2=C(CCCC2=O)N1` (stereo not given), the Potency was inconclusive: 28.2 µM [inhibitor, single point].
With `O=c1nc(-c2ccccc2)c2cc(Cl)ccc2[nH]1` the Potency was inconclusive: 28.2 µM [inhibitor, partial curve].
In the case of `COc1ccc(NC(=O)N2CCN(S(C)(=O)=O)CC2)c(OC)c1`, the “activity change, negative = inhibition” value is reported as inactive: 15.2%.
`Cn1c(SCC(=O)Nc2ccc(F)cc2)nc2c([nH]c3ccccc32)c1=O` was tested, and the Potency was inconclusive: 28.2 µM [inhibitor, partial curve].
`O=C(N=Nc1ccc(NOC(=O)c2ccccc2Br)cc1)c1ccccc1O` was tested, and the Potency was inconclusive: 28.2 µM [inhibitor, partial curve].
With `CCOC(=O)CSc1nnc(CNC(=O)c2cccs2)n1-c1cc(C)ccc1C` the “activity change, negative = inhibition” value was inactive: -1.72%.
In the case of `CSc1ccccc1-c1nnc(-c2ccc(C)cc2)o1`, the Potency is reported as inconclusive: 39.8 µM [inhibitor, single point].
For `NC(=O)c1c(N)sc2c1CCC2`, the Potency was inconclusive: 25.1 µM [inhibitor, single point].
For `Cc1cc(C)cc(N(C(=O)c2snc(C(N)=O)c2N)C(C(=O)NCC2CCCO2)c2cccs2)c1` (stereo not given), the Potency was inconclusive: 28.2 µM [inhibitor, partial curve].
With `Cc1ccccc1N=C1NC(=O)/C(=C/c2cccn2C)S1` the “activity change, negative = inhibition” value was inactive: -1.43%.
With `CCC(C)NC(=S)N1CCN(C)CC1` (stereo not given) the Potency was inconclusive: 22.4 µM [inhibitor, single point].
`CCc1nnc(NS(=O)(=O)c2ccc(NC(=S)NC(=O)/C=C/c3ccc([N+](=O)[O-])cc3)cc2)s1` was tested, and the Potency was inconclusive: 39.8 µM [inhibitor, single point].
With `OCC1(CC2CCCCO2)CCN(Cc2nc3ccccc3[nH]2)CC1` (stereo not given) the Potency was inconclusive: 31.6 µM [inhibitor, single point].
In the case of `COc1ccccc1CN1C[C@@H]2C[C@@H](c3cccc(C)n3)N3CCC[C@@]23C1=O`, the Potency is reported as inconclusive: 25.1 µM [inhibitor, single point].
For `Nc1c(C(=O)NC2CCCCC2)nsc1C(=O)OCC(=O)NC1CCCCC1`, the Potency was inconclusive: 31.6 µM [inhibitor, partial curve].
`COc1ccc(N2CCC(CNC(=O)Nc3ccc(Cl)cc3)C2)cc1` (stereo not given) was tested, and the “activity change, negative = inhibition” value was inactive: -8.23%.
`COc1ccc(-c2nc(C#N)c(NCCCn3ccnc3)o2)cc1OC` was tested, and the Potency was inconclusive: 31.6 µM [inhibitor, partial curve].
In the case of `CCOC(=O)c1ccccc1NCN1C(=O)CSC1=O`, the Potency is reported as inconclusive: 31.6 µM [inhibitor, partial curve].
With `O=C(COC(=O)c1ccccc1Nc1ccccc1)c1ccccc1` the Potency was inconclusive: 35.5 µM [inhibitor, single point].
In the case of `COc1ccc(/C=C/C(=O)OCn2c(SC)nnc(C)c2=O)cc1OC`, the Potency is reported as inconclusive: 28.2 µM [inhibitor, single point].
In the case of `Cc1[nH]c2ccccc2c1CC(=O)O`, the Potency is reported as inconclusive: 25.1 µM [inhibitor, single point].
`CC(NC(=O)c1ccc2c(c1)OCCO2)c1ccc(S(N)(=O)=O)cc1` (stereo not given) was tested, and the “activity change, negative = inhibition” value was inactive: 1.38%.
With `CC(C)c1ccc(/C=N/n2nnnc2Nc2ccccc2)cc1` the Potency was inconclusive: 20 µM [inhibitor, partial curve].
For `COc1ccc(N2CCN(C(c3cccs3)C(C)NC(=O)c3ccco3)CC2)cc1` (stereo not given), the Potency was inconclusive: 25.1 µM [inhibitor, single point].
For `Cc1ccc(-n2c(C)cc(C(=O)COc3cccnc3[N+](=O)[O-])c2C)cc1`, the “activity change, negative = inhibition” value was inactive: -15.3%.
`Cc1cc(C)c2c(=O)n(CC(=O)Nc3ccc(Br)c(C)c3)sc2n1` was tested, and the Potency was inconclusive: 35.5 µM [inhibitor, single point].
With `CS(=O)(=O)Nc1ccc(S(=O)(=O)N2CCCC2)cc1` the “activity change, negative = inhibition” value was inactive: -15.1%.
With `CC1=NN(c2ccccc2)C(=O)/C1=C/c1cc2cc(C)ccc2nc1N1CCCCC1` the Potency was inconclusive: 7.08 µM [inhibitor, partial curve].
For `Cc1ccc2oc(/N=C(\N)NC(=O)C(C)(C)C)nc2c1`, the Potency was inconclusive: 39.8 µM [inhibitor, single point].
For `CCc1c(C(=O)Nc2cc(C)ccc2OC)[nH]c(C)c1C(C)=O`, the Potency was inconclusive: 39.8 µM [inhibitor, single point].
`O=C(Nc1nc(-c2ccccc2)cs1)C1c2ccccc2Oc2ccccc21` was tested, and the “activity change, negative = inhibition” value was inactive: 0.298%.
With `COc1ccccc1CCNC(=O)CSc1ccc(-c2ccco2)nn1` the Potency was inconclusive: 14.1 µM [inhibitor, partial curve].
`CCc1ccc(N2C(=O)c3ccc4c5c(ccc(c35)C2=O)CC4)cc1` was tested, and the Potency was inconclusive: 14.1 µM [inhibitor, partial curve].
For `O=C(Cc1cccs1)N1CCCC(c2nc3c(nnn3Cc3ccc(F)cc3)c(=O)[nH]2)C1` (stereo not given), the “activity change, negative = inhibition” value was inactive: -2.53%.
